# From the supplement of paper PMC12067230
# The data scatter; read single values as rough.
# Assay: amyloid nucleation score relative to library mode (yeast Sup35 reporter selection) (log enrichment difference); higher = more amyloid nucleation; sequences are the first 22 residues of the Bri2 peptide extended by up to 12 random residues
# Details: random library (experiment): 1;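 active = nucleation score significantly above 0 at FDR 0.05; inactive = not significantly above 0 or absent from output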
# 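Note: [psi-pin-] Saccharomyces cerevisiae expressing SupN fusions, induced by 100 µM Cu2SO4, selected 7 d at 30 °C without adenine and uracil, scored by deep sequencing of output versus input.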
row,Sequence,amyloid nucleation score
1,EASNCFAIRHFENKFAVETLICMYAMYVWAIYQW,inactive
2,EASNCFAIRHFENKFAVETLICGVHISVWVIMHL,inactive
3,EASNCFAIRHFENKFAVETLICAFMMHWASGHIS,inactive
4,EASNCFAIRHFENKFAVETLICLSSSQHFLCRHS,inactive
5,EASNCFAIRHFENKFAVETLICDVGQ,inactive
6,EASNCFAIRHFENKFAVETLICRRYVDLVDTLQL,inactive
7,EASNCFAIRHFENKFAVETLICTDREYRRRAMSR,inactive
8,EASNCFAIRHFENKFAVETLICVAEGGADSGRR,inactive
9,EASNCFAIRHFENKFAVETLICTEVAVLTLVGVS,-0.146
10,EASNCFAIRHFENKFAVETLICQQPCCLLGVSCW,inactive
11,EASNCFAIRHFENKFAVETLICVRSRGLAPRWLS,0.655
12,EASNCFAIRHFENKFAVETLICGEGFAYKWGWDG,inactive
13,EASNCFAIRHFENKFAVETLICHGGR,inactive
14,EASNCFAIRHFENKFAVETLICGQRFGMQLCGRG,inactive
15,EASNCFAIRHFENKFAVETLICVRLEARSLCCEQ,inactive
16,EASNCFAIRHFENKFAVETLICATRVSFLPGS,4.16
17,EASNCFAIRHFENKFAVETLICQT,inactive
18,EASNCFAIRHFENKFAVETLICKFGLKLRYIGLV,inactive
19,EASNCFAIRHFENKFAVETLICWWKYSPLGGVNA,inactive
20,EASNCFAIRHFENKFAVETLICYLSRNNSNLWCA,inactive
21,EASNCFAIRHFENKFAVETLICLPMGLLVAFRCN,inactive
22,EASNCFAIRHFENKFAVETLICRSIGFEIVDSYW,3.37
23,EASNCFAIRHFENKFAVETLICITSSLLVSGIKV,inactive

row,Sequence,amyloid nucleation score
1,EASNCFAIRHFENKFAVETLICVLLSEPNVDGLR,6.77
2,EASNCFAIRHFENKFAVETLICVHHRTHMLMEGV,0.109
3,EASNCFAIRHFENKFAVETLICPVWWTLTGHAWR,inactive
4,EASNCFAIRHFENKFAVETLICQDNVVSRLGSAR,inactive
5,EASNCFAIRHFENKFAVETLICHEVQCRAPVWEI,inactive
6,EASNCFAIRHFENKFAVETLICLSSPLDSWLMGR,-0.317
7,EASNCFAIRHFENKFAVETLICRDG,inactive
8,EASNCFAIRHFENKFAVETLICTRNTLLCRIQTY,0.0198
9,EASNCFAIRHFENKFAVETLICTVLTGVKGGYYA,0.405
10,EASNCFAIRHFENKFAVETLICLTVPPIGYHISR,0.618
11,EASNCFAIRHFENKFAVETLICQRCKRLGECSTK,inactive
12,EASNCFAIRHFENKFAVETLICGYTSWQAVVRRT,2.7
13,EASNCFAIRHFENKFAVETLICVHVMGRYCCRWS,inactive
14,EASNCFAIRHFENKFAVETLICPRSLV,inactive
15,EASNCFAIRHFENKFAVETLICVLSWLGNMHD,inactive
16,EASNCFAIRHFENKFAVETLICHYPGNH,inactive
17,EASNCFAIRHFENKFAVETLICCWFLAAGFPGGS,5.85
18,EASNCFAIRHFENKFAVETLICLDWLSPPGAVRR,3.68
19,EASNCFAIRHFENKFAVETLICRRRGHRVAVGGK,-0.211
20,EASNCFAIRHFENKFAVETLICVSKSVCFTAHAW,inactive
21,EASNCFAIRHFENKFAVETLICGSPWEYEPEPR,inactive
22,EASNCFAIRHFENKFAVETLICCGNFSVLISH,7.65

# Same assay, conditions: random library (experiment): 2
row,Sequence,amyloid nucleation score
1,EASNCFAIRHFENKFAVETLICVTLYSFK,4.69
2,EASNCFAIRHFENKFAVETLICVYLFKSLATGFA,0.68
3,EASNCFAIRHFENKFAVETLICVVRLSKVRLVDI,inactive
4,EASNCFAIRHFENKFAVETLICCPDKPS,-0.262
5,EASNCFAIRHFENKFAVETLICFRAEI,inactive
6,EASNCFAIRHFENKFAVETLICPSASGCLDFNPL,inactive
7,EASNCFAIRHFENKFAVETLICKVVCLV,inactive
8,EASNCFAIRHFENKFAVETLICFSLSL,8.73
9,EASNCFAIRHFENKFAVETLICNDVSLLY,4.5
10,EASNCFAIRHFENKFAVETLICVLTLLCCKAPGF,3.29
11,EASNCFAIRHFENKFAVETLICCFGSTDKIHFV,6.77
12,EASNCFAIRHFENKFAVETLICLGLCNFSYCPSR,8.49
13,EASNCFAIRHFENKFAVETLICCLFGLLWCYPFS,inactive
14,EASNCFAIRHFENKFAVETLICVFKSALFTVHGL,inactive
15,EASNCFAIRHFENKFAVETLICIFGQKQSYRCYS,5.54
16,EASNCFAIRHFENKFAVETLICLMLFVFVFILTR,2.62

row,Sequence,amyloid nucleation score
1,EASNCFAIRHFENKFAVETLICRMTGFL,inactive
2,EASNCFAIRHFENKFAVETLICRPRTVWVSSALG,inactive
3,EASNCFAIRHFENKFAVETLICGVLLLGSVVWGR,3.78
4,EASNCFAIRHFENKFAVETLICVPYSHVLKKQSW,inactive
5,EASNCFAIRHFENKFAVETLICRPSGNWSRYLER,inactive
6,EASNCFAIRHFENKFAVETLICRFSPLSPNVVVY,inactive
7,EASNCFAIRHFENKFAVETLICADVKWC,4.9
8,EASNCFAIRHFENKFAVETLICMTQHVYSFRYSE,inactive
9,EASNCFAIRHFENKFAVETLICFVLMYRWLMAEV,inactive
10,EASNCFAIRHFENKFAVETLICNKHRHKFRHEVT,inactive
11,EASNCFAIRHFENKFAVETLICGCQVKLIFVSRY,4.42
12,EASNCFAIRHFENKFAVETLICLGSTSCEHWVVC,inactive
13,EASNCFAIRHFENKFAVETLICILSVIML,inactive
14,EASNCFAIRHFENKFAVETLICFCSLYYMMPATN,inactive
15,EASNCFAIRHFENKFAVETLICGNVVHWLSEGVG,inactive

# Same assay, conditions: random library (experiment): 3
row,Sequence,amyloid nucleation score
1,EASNCFAIRHFENKFAVETLICRLQ,7.22
2,EASNCFAIRHFENKFAVETLICQSDVER,inactive
3,EASNCFAIRHFENKFAVETLICGLEGRR,inactive
4,EASNCFAIRHFENKFAVETLICALRQC,inactive
5,EASNCFAIRHFENKFAVETLICRAAKLVEYGW,-0.314
6,EASNCFAIRHFENKFAVETLICCSFAVQISEVQR,8.46
7,EASNCFAIRHFENKFAVETLICWGMPVTQSRVVI,inactive
8,EASNCFAIRHFENKFAVETLICLDVSKLGRSATG,2.74
9,EASNCFAIRHFENKFAVETLICYSRINHRLERVT,inactive
10,EASNCFAIRHFENKFAVETLICVVHGLGCACRVL,2.55
11,EASNCFAIRHFENKFAVETLICACRDAACERFSM,5.16
12,EASNCFAIRHFENKFAVETLICDDDLARKLMTHT,2.07
13,EASNCFAIRHFENKFAVETLICHAHCEDYDITFQ,0
14,EASNCFAIRHFENKFAVETLICYTKNLCRMYHSV,1.63
15,EASNCFAIRHFENKFAVETLICLDDVGWVVRDRY,3.87
16,EASNCFAIRHFENKFAVETLICRGERESSAVGEG,inactive
17,EASNCFAIRHFENKFAVETLICAPV,inactive
18,EASNCFAIRHFENKFAVETLICRRRSC,inactive
19,EASNCFAIRHFENKFAVETLICVEVLFDVRICGA,inactive
20,EASNCFAIRHFENKFAVETLICLWSH,1.49
21,EASNCFAIRHFENKFAVETLICLAMTQDEGTSET,inactive
22,EASNCFAIRHFENKFAVETLICAYNKPPPEWCGA,inactive

row,Sequence,amyloid nucleation score
1,EASNCFAIRHFENKFAVETLICHLLEDS,inactive
2,EASNCFAIRHFENKFAVETLICCLRTTSKRCWRR,inactive
3,EASNCFAIRHFENKFAVETLICCFACSLNRVNGM,8.59
4,EASNCFAIRHFENKFAVETLICPDRERG,inactive
5,EASNCFAIRHFENKFAVETLICCSSLAFLNARTG,7.56
6,EASNCFAIRHFENKFAVETLICQHELRVRRRADE,inactive
7,EASNCFAIRHFENKFAVETLICEINDHAWGTVTV,inactive
8,EASNCFAIRHFENKFAVETLICASDMYWRDLRLL,5.41
9,EASNCFAIRHFENKFAVETLICKRFPNRPPGYET,0.768
10,EASNCFAIRHFENKFAVETLICGPCGSYTCPVPE,4.09
11,EASNCFAIRHFENKFAVETLICRSGYRMAKAGRV,inactive
12,EASNCFAIRHFENKFAVETLICVVSGTVWVFRGR,0.0651
13,EASNCFAIRHFENKFAVETLICMLHRDGRFGGGG,2.4
14,EASNCFAIRHFENKFAVETLICLGETW,inactive
15,EASNCFAIRHFENKFAVETLICGVRSKPRMRSLP,inactive
16,EASNCFAIRHFENKFAVETLICLVVYCGLTVEFR,inactive
17,EASNCFAIRHFENKFAVETLICMGDRSVWGEMRR,6.07
18,EASNCFAIRHFENKFAVETLICGVVRGGMEEGSV,inactive
19,EASNCFAIRHFENKFAVETLICLVVSGTRRESGA,2.65
20,EASNCFAIRHFENKFAVETLICRCDTWCSVMGML,inactive
21,EASNCFAIRHFENKFAVETLICFIEYYSGFVKKD,inactive
